For experiment [1], the target named is endogenous VAPB (mouse brain) (mouse (endogenous in brain)) (UniProt Q9QY76). Nature of the experiment: co-IP; endogenous VAPB immunoprecipitated from mouse brain extracts with anti-VAPB antibodies cross-linked to Protein A-Sepharose, uncoupled beads as control; buffer A, 4°C.
For experiment [2], the target named is Flag-VAPB full length K87D M89D (human) (UniProt O95292). In words: co-IP; anti-Flag M2 beads on lysates of U2OS cells expressing the Flag-tagged bait (transfected or tetracycline-induced); buffer A (50 mM HEPES/KOH pH 7.2, 5 mM Mg(OAc)2, 70 mM KOAc, 0.2% Triton X-100, 10% glycerol, 0.2 mM EDTA), 4°C, 2 hr; endogenous prey by immunoblot; cells untreated, treated with MG132 or with siRNA (FAF1, p97, ASNA1, luciferase) as indicated.

Sequences of proteins named here, by UniProt entry; tags and fusion partners are left off. A change or cut given only in a name is not applied to a line headed by its entry.
UniProt Q9QY76: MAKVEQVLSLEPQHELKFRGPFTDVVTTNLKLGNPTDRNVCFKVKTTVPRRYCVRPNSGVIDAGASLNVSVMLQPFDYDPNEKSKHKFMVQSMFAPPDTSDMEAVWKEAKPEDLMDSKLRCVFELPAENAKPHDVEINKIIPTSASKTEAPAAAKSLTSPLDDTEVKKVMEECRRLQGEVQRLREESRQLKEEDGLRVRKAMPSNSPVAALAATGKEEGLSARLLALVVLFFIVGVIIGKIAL
UniProt O95292: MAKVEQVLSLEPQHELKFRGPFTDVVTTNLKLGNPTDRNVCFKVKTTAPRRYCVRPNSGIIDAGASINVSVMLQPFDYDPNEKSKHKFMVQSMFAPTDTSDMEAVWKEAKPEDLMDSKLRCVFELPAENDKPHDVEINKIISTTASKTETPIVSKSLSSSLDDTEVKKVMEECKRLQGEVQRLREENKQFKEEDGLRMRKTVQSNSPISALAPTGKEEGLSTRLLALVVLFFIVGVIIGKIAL
UniProt O54984: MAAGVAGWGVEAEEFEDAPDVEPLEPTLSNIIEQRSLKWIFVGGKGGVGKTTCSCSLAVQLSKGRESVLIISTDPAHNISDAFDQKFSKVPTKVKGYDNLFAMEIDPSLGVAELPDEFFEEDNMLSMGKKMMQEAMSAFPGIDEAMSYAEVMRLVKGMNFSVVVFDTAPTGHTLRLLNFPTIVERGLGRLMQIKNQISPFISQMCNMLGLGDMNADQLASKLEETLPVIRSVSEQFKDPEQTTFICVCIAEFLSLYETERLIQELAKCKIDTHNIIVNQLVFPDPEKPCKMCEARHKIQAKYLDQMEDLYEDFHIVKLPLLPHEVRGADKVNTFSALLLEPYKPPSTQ

For experiment [3], the target named is Flag-VAPB full length wild type (human) (UniProt O95292). The experiment is described as above.
For experiment [4], the target named is T1, Flag-VAPA wild type (human) (UniProt Q9P0L0).
T1 sequence: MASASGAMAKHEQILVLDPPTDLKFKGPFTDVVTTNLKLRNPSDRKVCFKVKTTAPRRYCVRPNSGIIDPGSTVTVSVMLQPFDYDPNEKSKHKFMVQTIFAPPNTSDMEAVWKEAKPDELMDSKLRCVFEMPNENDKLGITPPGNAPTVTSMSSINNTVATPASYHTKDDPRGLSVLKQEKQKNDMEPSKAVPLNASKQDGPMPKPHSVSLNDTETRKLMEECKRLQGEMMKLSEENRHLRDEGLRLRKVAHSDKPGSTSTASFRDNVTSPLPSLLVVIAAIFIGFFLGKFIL
The experiment is described as above.

In experiment [5] the target is Flag-VAPB full length wild type (human) (UniProt O95292). Nature of the experiment: co-IP; anti-Flag beads on lysates of HeLa cells expressing Flag-VAPB; immunoblot. For orientation: A western blot detects proteins with antibodies after separation by electrophoresis.

No constants are given. Whether binding was seen depends on the method and setting. Binding seen in cells or lysates may run through a third protein. Some entries that bind do so weakly or less than the wild type. For part of these data: Where a sequence is shown, tags or fusion partners need not be part of it.

We go through three molecules from paper PMC4068158.

Regarding “endogenous ASNA1 (mouse brain) (from UniProt O54984 1-348)”, the binding entry in experiment [1] is “binds”.

B1: endogenous RAB3GAP1 (human cells) (protein, UniProt Q15042 1-981)
chain: MAADSEPESEVFEITDFTTASEWERFISKVEEVLNDWKLIGNSLGKPLEKGIFTSGTWEEKSDEISFADFKFSVTHHYLVQESTDKEGKDELLEDVVPQSMQDLLGMNNDFPPRAHCLVRWYGLREFVVIAPAAHSDAVLSESKCNLLLSSVSIALGNTGCQVPLFVQIHHKWRRMYVGECQGPGVRTDFEMVHLRKVPNQYTHLSGLLDIFKSKIGCPLTPLPPVSIAIRFTYVLQDWQQYFWPQQPPDIDALVGGEVGGLEFGKLPFGACEDPISELHLATTWPHLTEGIIVDNDVYSDLDPIQAPHWSVRVRKAENPQCLLGDFVTEFFKICRRKESTDEILGRSAFEEEGKETADITHALSKLTEPASVPIHKLSVSNMVHTAKKKIRKHRGVEESPLNNDVLNTILLFLFPDAVSEKPLDGTTSTDNNNPPSESEDYNLYNQFKSAPSDSLTYKLALCLCMINFYHGGLKGVAHLWQEFVLEMRFRWENNFLIPGLASGPPDLRCCLLHQKLQMLNCCIERKKARDEGKKTSASDVTNIYPGDAGKAGDQLVPDNLKETDKEKGEVGKSWDSWSDSEEEFFECLSDTEELKGNGQESGKKGGPKEMANLRPEGRLYQHGKLTLLHNGEPLYIPVTQEPAPMTEDLLEEQSEVLAKLGTSAEGAHLRARMQSACLLSDMESFKAANPGCSLEDFVRWYSPRDYIEEEVIDEKGNVVLKGELSARMKIPSNMWVEAWETAKPIPARRQRRLFDDTREAEKVLHYLAIQKPADLARHLLPCVIHAAVLKVKEEESLENISSVKKIIKQIISHSSKVLHFPNPEDKKLEEIIHQITNVEALIARARSLKAKFGTEKCEQEEEKEDLERFVSCLLEQPEVLVTGAGRGHAGRIIHKLFVNAQRAAAMTPPEEELKRMGSPEERRQNSVSDFPPPAGREFILRTTVPRPAPYSKALPQRMYSVLTKEDFRLAGAFSSDTSFF
For B1, the binding entry in experiment [2] is reported as “no binding”; in experiment [3], “binds”; in experiment [4], “binds”; in experiment [5] it was “binds”.

B2: endogenous WDR44 (human cells) (protein, UniProt Q5JSH3 1-913)
chain: MASESDTEEFYDAPEDVHLGGGYPVGSPGKVGLSTFKETENTAYKVGNESPVQELKQDVSKKIIESIIEESQKVLQLEDDSLDSKGKELSDQATASPIVARTDLSNIPGLLAIDQVLPEESQKAESQNTFEETELELKKCFPSDETCEKPVDETTKLTQTSSTEQLNVLETETEVLNKEAVEVKGGGDVLEPVSSDSLSTKDFAAVEEVAPAKPPRHLTPEPDIVASTKKPVPARPPPPTNFPPPRPPPPSRPAPPPRKRKSELEFETLKTPDIDVPKENITSDSLLTASMASESTVKDSQPSLDLASATSGDKIVTAQENGKAPDGQTVAGEVMGPQRPRSNSGRELTDEEILASVMIKNLDTGEEIPLSLAEEKLPTGINPLTLHIMRRTKEYVSNDAAQSDDEEKLQSQPTDTDGGRLKQKTTQLKKFLGKSVKRAKHLAEEYGERAINKVKSVRDEVFHTDQDDPSSSDDEGMPYTRPVKFKAAHGFKGPYDFDQIKVVQDLSGEHMGAVWTMKFSHCGRLLASAGQDNVVRIWALKNAFDYFNNMRMKYNTEGRVSPSPSQESLSSSKSDTDTGVCSGTDEDPDDKNAPFRQRPFCKYKGHTADLLDLSWSKNYFLLSSSMDKTVRLWHISRRECLCCFQHIDFVTAIAFHPRDDRYFLSGSLDGKLRLWNIPDKKVALWNEVDGQTKLITAANFCQNGKYAVIGTYDGRCIFYDTEHLKYHTQIHVRSTRGRNKVGRKITGIEPLPGENKILVTSNDSRIRLYDLRDLSLSMKYKGYVNSSSQIKASFSHDFTYLVSGSEDKYVYIWSTYHDLSKFTSVRRDRNDFWEGIKAHNAVVTSAIFAPNPSLMLSLDVQSEKSEGNEKSEDAEVLDATPSGIMKTDNTEVLLSADFTGAIKVFVNKRKNVS
As to B2, the binding entry is reported as “no binding” in experiment [2], “binds” in experiment [3], “binds” in experiment [4] and “binds” in experiment [5].
